The list shows a part of the results.
Tested on: PfHDP1 homeodomain (GST-tagged)
Assay: gcPBM binding intensity (ln(normalized median fluorescence intensity)); higher = stronger DNA binding
Method in brief: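 Using an Agilent 4 × 180k array, primer-extended double-stranded 36-bp intergenic genomic probes and negative controls were exposed for 1 h to GST-fused P. falciparum DNA-binding domains expressed in E. coli. Binding was carried out in 1× PBS with 1% milk, 0.2 mg/ml BSA, 0.5% salmon testes DNA and 0.03% Triton X-100, and protein was detected with Alexa488 anti-GST antibody and a 488 nm scan. Binding intensity is the highest Masliner-normalised natural-log median intensity across replicate spots of either probe orientation.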

| Sequence | gcPBM binding intensity (ln) |
| --- | --- |
| ACATTTAAGTTTAGCTGTACATATTCATCATAATTA [XGTACX_site37] | 6.49 |
| TATTCCTTCTACAATTAAATAATTATAATAAATATA [GTGCAC_negctrl_site26] | 6.51 |
| GTATCATTAAATTATTGTACATATATATATATATAT [XGTACX_site8809] | 9.36 |
| ATAAATCAAAGGCACACACACAAAAAAAAAAAAAAA [CACACA_site160] | 6.34 |
| TGTTTTTTATATTACTGTACATGTTTTGGAATAATA [XGTACX_site4716] | 6.96 |
| ATATCACATTCCACGGTACACACTAAAAGAAAAATC [CACACA_site3611] | 6.75 |
| GCGGGTTTATCTTTCGCACACCTTACATTTTAGAAT [CACACA_site2015] | 6.92 |
| AGTTTTATGTAGTGTTGTACTTTATACAAATATATT [XGTACX_site614] | 7.25 |
| TATTGTTTTGATTGATGTACATGTTTAAAATATATA [XGTACX_site8430] | 6.65 |
| TAATCTATTTATATGTGTACCTATTTAGAAATGACA [XGTACX_site5709] | 6.3 |
| AAAGTAAATTTAAGCACACACAACGAACTTTTATAC [CACACA_site7008] | 6.82 |
| AAGAAAAAATATAATAATAATAAAATATATATAATA [TGCATGCA_negctrl_site475] | 6.19 |
| TTTGTTTTTCATAGTGCACACATAACCAAAAATAGT [CACACA_site9030] | 9.81 |
| TTAATTAATAGACACACACACATATAAATATAGATT [CACACA_site7143] | 6.59 |
| AAAAAAAAATAATATTGTACACACATAAATTCTTTG [XGTACX_site4315] | 6.09 |
| GTTTTATTAAAAATGTGTACTTAATTATGAAAAAAA [XGTACX_site4689] | 6.26 |
| GTGTATTTTCTGCGCACACACATGCAAAAAGAAATA [CACACA_site1148] | 8.17 |
| TGTTGTAAATATGTTTGTACATAAATATATTATTTA [XGTACX_site5442] | 6.25 |
| TATATTTACATTGTAACACACATGAAATATATATAT [CACACA_site61] | 7.55 |

| Sequence | gcPBM binding intensity (ln) |
| --- | --- |
| TTTTTTATTGTGATACGTATATTATTTTTTGATAAA [CACACA_negctrl_site1] | 6.79 |
| CATACTGTGATAGCACCACACACGCAAAAGAGGGTA [CACACA_site8285] | 6.72 |
| TAAGGCCCTTTTCATCGTACAGTAAAATATAAATAA [XGTACX_site1278] | 6.52 |
| GAAAATTCTTAAGGCACACACATATATAATATATAC [CACACA_site569] | 6.66 |
| AATTTAACCCATTTTATAATTATTACCACTATATAT [TGCATGCA_negctrl_site452] | 6.82 |
| CAAATACATGTGTAAAGTACATATTAATAAGTCTTT [XGTACX_site6342] | 6.43 |
| AAGAAAAAATAAACATGTACATAAATATATATATAT [XGTACX_site304] | 9.01 |
| ATTTAATTTATAAAAACACACACAGGTAAAAAGGTG [CACACA_site8306] | 7.32 |
| ATTTTTTTTTTTATGTGTACATATATTTTTTTAATT [XGTACX_site7921] | 7.04 |
| AATAATAGAAAAAGGTGTACTTATAAACATATACAC [XGTACX_site6921] | 6.34 |
| ATATATTTTTTTTCTTCACACACATGAATTATATAT [CACACA_site9053] | 6.88 |
| ATATATATATATATATGTACATATTATATATGAACG [XGTACX_site1585] | 9.29 |
| GTAATTATTATTAATAGTACACACTATGGCATTTCA [XGTACX_site5192] | 6.41 |
| TACTGTGATAGCACCACACACGCAAAAGTGAGTATA [CACACA_site1109] | 6.66 |
| TATATTTAGTAAAAAGGTACCATTCTTATTTATATT [CACACA_negctrl_site1165] | 6.04 |
| TATATTAATAGACACACACACATATTTATATTTATA [CACACA_site6859] | 6.73 |
| TTTCAGCCAAACGATAAACTACGACACTTGAACGAA [CACACA_negctrl_site1747] | 6.22 |
| TATATATATATATATTGTACTAATTGTGCAAATGAG [XGTACX_site682] | 10.9 |
| TAAGAAAAAAAATAATGTACATATGTATTTGAGAAA [XGTACX_site3569] | 6.44 |

| Sequence | gcPBM binding intensity (ln) |
| --- | --- |
| GAAATTTTTAAATACAGTACACACATGGGTTTAAAT [XGTACX_site6124] | 6.65 |
| ATACTTCAATCTATTTGTACATATTTTTTAAAACCA [XGTACX_site2328] | 6.89 |
| ATAAAGCCATACAATACACACATTTGACATGTCCGT [CACACA_site7523] | 6.97 |
| AATAATAAAAAATATACACACATATATAAATAAATA [CACACA_site6164] | 6.35 |
| TGCTACTTATAAATAGAACACACATAAGTGTATTTG [CACACA_site9253] | 6.3 |
| AAGAAAAAAAAAAAAAAAAAAAAAAAAAAGGAAAAA [GTGCAC_negctrl_site174] | 5.84 |
| AAAAAAAAAAAAAAAAAAAAAAAAAAATATATATAT [CACACA_negctrl_site271] | 8.36 |
| TATATGGAGAGATATGCACACTGTATGAATGCCCCC [CACACA_site8853] | 9.19 |
| TATTTATACATAGGTGGTACTACTTTAAACAAAAAA [XGTACX_site5062] | 6.36 |
| AAATAAATAATATTCACACATAAAAAAAATGGAGTT [CACACA_site4525] | 6.43 |
| TATTTACACAAAATAAAATATATTATATATATATAT [TGCATGCA_negctrl_site381] | 8.72 |
| TTGCACAGATTAATCAAAAATTTTAAACCAAATATA [XGTACX_negctrl_site38] | 6.77 |
| AGAATAGAATAAAAAACACACATTTACAACATTATT [CACACA_site3894] | 6.52 |
| ATAAAAATAAAATGGACACACATATATACCTATTTG [CACACA_site5761] | 6.35 |
| TGATATTTTATTATTAAAATATATACATATATATAT [CACACA_negctrl_site1456] | 8.14 |
| AAGAAAAAAAAAAAAAAAGATACTTTTTTAAAACTA [TGCATGCA_negctrl_site13] | 5.95 |
| GTGCAATATTTATTTTGTACATATTTATCAATAAAC [XGTACX_site8297] | 7.29 |
| TTATATTTTTACAAGAGTACATATATATATATATAT [XGTACX_site5383] | 9.54 |

From the supplement of paper PMC11417369
